Reference: PubChem BioAssay (NCI)
Some structures have more than one record in an assay (separate samples or runs), and their calls can disagree.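 Plates (96-well) were seeded with cells, treated with compound at one concentration, and incubated for 48 hours before percent growth was determined.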 The source holds more than one record for some entries. This is not the full list of results. The source may hold further records. Rule for the calls: active = growth percent below 10; inactive = the rest. This drug was run again and again over the years, at its own concentration, as given; one value stands for one run. Additions like (4×) say how often a value occurs here.

Test system: HS 578T breast
Test: NCI-60 one-dose screen, 48 h (100 = growth as untreated, 0 = no growth, -100 = all killed)
Conditions: 0.25 µM

In the case of `COc1cccc2c1C(=O)c1c(O)c3c(c(O)c1C2=O)C[C@@](O)(C(=O)CO)C[C@@H]3OC1CC(N)C(O)C(C)O1` (stereo not given in full), the growth (runs of 2008) is reported as “inactive: 74.8, 56, 59.7, 63.7, 77.5, 71, 70.8, 64.8, 78.7, 55.5, 62.4, 47.1, 48, 33.7, 49, 82, 79.2, 51.2, 40.2, 51.5, 62.1, 40.5, 60.1, 29.9, 38.4, 108, 50.1, 16.3, 12.8, 44.1, 13.1, 73.1, 42.7, 26.7, 33.5, 36, 58.3, 54.5, 46.5, 68.8, 63.8 (2×), 66.9, 82.9, 45.7, 53.9, 54.2, 36.9, 69.3, 77.3, 40.9% and active: 9.92%, -8.03%”, the growth (runs of 2009) is reported as “inactive: 59.7, 25.6, 54.6, 63.9, 65.5, 71.8, 51.8, 60.8, 83, 72.7 (2×), 70.2, 55.7, 51.9, 67.7, 70.3, 81.4, 57.9 (2×), 47.2, 52.5, 57.3 (2×), 35.9, 54.5, 73.2, 56.7, 67.8, 63.5, 49 (2×), 76.9, 52.1, 77.5 (2×), 56.6, 50.6 (2×), 53.8, 78.7, 54.2, 58.2, 83.8, 81.1, 68.9, 67.9, 43.5, 84.4, 55, 37.5, 64.3, 47.4, 71.2, 69.7, 60.5, 55.1, 65.3%” and the growth (runs of 2010) is reported as “inactive: 69.9, 69.6, 62.5, 77.1, 57.8, 66.7, 39.4, 66.2, 60.5, 74, 71.2, 63.7, 63.9, 56.5, 69.3, 77.2, 70.3, 44.6, 70.4, 78.3 (2×), 87.5, 86.7, 72.1 (2×), 78.4, 49.4, 77.4, 55.1, 92.3, 74.2 (2×), 66.9, 54.9, 83.7, 52.6, 65.4, 46.8, 62.4, 58.4, 70.6 (2×), 75.6, 53.8, 98.8, 73.8, 64.3, 69.8, 65.5, 79.6% (2×)”. The growth (runs of 2011) was “inactive: 72.1, 95.3, 71.9, 82.7, 91, 89.3, 85.8, 76.7, 77.4 (2×), 86.6, 89.8, 92.8, 78.1, 72.7, 76.4, 91.9, 76.8, 76.1, 87.5, 83.4, 82.4, 72.5, 75.9, 83.5 (2×), 75.5, 73, 71.4, 61.6, 79.1, 64.8, 67.5, 59.9, 86.9, 81.2, 67.1, 68.7, 67.9, 69.9, 66.2, 71.1, 57.3, 75.2, 67.8, 83.1, 67.3, 73.2, 57.8, 71.2, 70.5, 73.9, 75%”, the growth (runs of 2012) was “inactive: 66.6, 46.8, 62.1 (2×), 57, 44.4, 69.8 (2×), 61.8, 72, 68.5, 73.3, 66.5, 41.1, 58.3, 60.5, 68.6, 70.9, 59.2, 63.7, 69.3, 67.7, 68.2, 72.2 (2×), 69.7, 74.1, 78.7, 69.1 (2×), 82, 68.3, 73.2, 63.1, 68.9, 73, 79.5 (2×), 63.3, 76.1, 76.8, 74.8, 75.8, 83.4, 81.6, 91.9, 83, 90.8, 87.7, 85.8, 95.2, 64, 66.2, 73.1, 73.9, 71.4, 75, 63.4, 41.4%” and the growth (runs of 2013) was “inactive: 66.8, 69.5 (2×), 73.2, 69.6, 82.8, 77.6, 73.3 (2×), 80, 71.4, 81.2, 78.2 (2×), 70.6, 75.3, 83.4, 76.7, 79, 77, 77.4, 74.9, 68.4 (2×), 72.6, 62.1, 68.3, 62.4, 69.4 (2×), 81.7, 66.9, 70.4, 64.5, 75.5, 75.9, 86.9, 88.8, 75.8, 74, 79.2, 80.2, 72.5, 74.8, 74.3, 75.2, 65.3, 64.2 (2×), 66.4, 55.6, 53.2, 47.3, 42.8, 64, 61.7, 57.4, 72, 68.2, 57.2 (2×), 60 (2×), 67.1, 66.1%”. For the same molecule, the growth (runs of 2014) was “inactive: 59.8, 55.9, 71.7 (2×), 66.6 (3×), 57.1, 62.3 (2×), 57, 53.1, 48, 66 (2×), 63.9, 75.8, 54.1, 67.8, 57.7, 69.9 (2×), 65.3 (3×), 52.8, 71.3 (2×), 68.2 (2×), 56.8, 67.7, 73.9 (3×), 66.1 (2×), 65.2, 66.3, 71.2, 57.6, 63.1, 81.4, 79.2, 65.4, 67.3, 74.4, 79.6 (2×), 75.1 (2×), 80.1 (2×), 72.2, 80 (2×), 77, 71.4, 60, 63.8, 63.6, 78.2, 67.2, 80.4, 70.2, 75.2, 71.1, 75.9, 74.9, 76.8%”, the growth (runs of 2015) was “inactive: 83.2 (2×), 77.8, 68.3, 80.2, 76.6, 80.8, 82.8, 86.4, 70, 73.8, 74.3, 78.2 (2×), 72.2, 75.4, 66.7, 63.5, 44.3, 50.7, 65.2, 57.8, 80.4, 71.7, 71, 52 (2×), 58, 53.9, 77.5, 64.8 (2×), 68.2, 53.6, 64.4, 63.6, 73.1, 64.6 (3×), 83.6, 57.7, 62.1 (2×), 71.1 (2×), 66.6, 70.4, 51.2, 34, 53, 62.5, 54.9, 59.2, 68.6, 75.6, 69.1, 79.4, 82.6, 80, 67.5, 74, 61.2, 60.6, 45.4, 62, 62.2, 65.3, 54.5, 77.6, 82.3, 72.5, 78.3, 79.6%” and the growth (runs of 2016) was “inactive: 68.7, 62.9, 70.5 (3×), 71.7, 73.4, 70.6, 82.8, 76.5, 76.9, 79.8 (2×), 66, 69.1, 68.6, 68.4, 53, 70.4, 78.2 (2×), 62.1, 75.1 (3×), 73.3, 66.9 (2×), 79.6 (2×), 68.3, 77.2, 71.3, 64.8, 69.5, 60.6, 77.1, 65.5, 77.5, 67.8, 70.2, 81.9, 69.4, 84, 71 (3×), 86.1, 67.5, 71.2, 69.9, 73.2, 74.8, 79, 79.2 (2×), 71.4, 75.4, 80.3, 81.7, 75.5, 74.2, 66.2, 80.1, 71.9, 86.4, 69.8, 81.2, 78.9, 68, 82.7, 76.8, 77.3, 78.3, 73.9, 90.6, 81.1%”. The growth (runs of 2017) was “inactive: 82.7, 74.1, 68.9, 63.8, 69.3 (2×), 77.5, 67.9, 70.8, 69.9 (2×), 72.2, 78.2, 73.3, 73.9, 72.6 (2×), 66.9 (3×), 53.2 (2×), 59.8, 66.8, 68.3 (3×), 56.2, 58, 62.9, 66, 54.1, 71.1 (3×), 70, 65.4, 72.9, 61 (2×), 58.1, 62.5 (2×), 74.3 (2×), 68.4 (3×), 67.3, 71.3, 76.8, 63.7, 71.2, 64.3, 62.2 (2×), 70.9, 71.7, 66.1, 70.2 (2×), 64.4, 66.3, 67.2, 74.8, 66.6, 67.1, 73.8, 69.8, 66.2, 65.9, 56.9, 74.4, 56.3 (2×), 58.9%”, the growth (runs of 2018) was “inactive: 65.3, 61.6, 53.8, 55, 49.3, 56, 58.2, 73.4, 69.1, 59.7, 57.5 (2×), 59.9, 71.1, 70.3, 66.7, 66.8, 63.7, 57.7, 56.6, 62, 64.1, 55.7, 57.2 (2×), 66.5, 65.5, 64.5, 73.8, 62.3, 67.7, 60.6, 57.3, 58, 55.1, 62.2, 74.2, 60.4, 59.8, 55.2, 50.5, 51.8, 57.4, 60.2, 69.5, 34%” and the growth (runs of 2019) was “inactive: 56.1, 52.6, 39.2, 44.9, 24.9, 54, 44.3, 41.1, 48.7, 47.5, 58, 54.8, 63.5, 68.7 (2×), 61.8, 60.3, 58.1, 47, 64.2, 54.6, 49.8, 51.5, 52.1, 44.4, 55.6, 59.1, 58.3, 39.9, 49.4, 53.5, 62.1, 61.2, 66.3, 55.7, 66.2, 71.1, 66.6, 75.5, 72, 64.5, 70.6, 75, 68.8, 52%”. For the same molecule, the growth (runs of 2020) was “inactive: 55.8, 56.7, 73.2 (2×), 67.1, 71.2, 61.2, 59.5, 70.3, 70.5 (2×), 62.5, 68.2 (2×), 55.6, 82.6, 57.4, 66.3, 73.1, 69.7, 56.9, 65.4, 74.2, 66.2, 56.6%”, the growth (runs of 2021) was “inactive: 60.5, 64.8, 63.3, 69.7, 54.9, 64.1 (2×), 61.3 (2×), 64.2, 55.4, 50.9, 57.1 (2×), 65.2, 63.7, 75, 67.7, 68.6, 59.1, 57.7, 58, 64.5, 59.5, 55.2, 59.7, 62, 60.8, 57.6, 55.6, 50.2, 52.7, 51.5, 66.5 (2×), 66.3, 57.4, 75.1, 80.4, 72.8, 76.9, 55.9, 50.1, 82.6, 74.1, 75.2%” and the growth (runs of 2022) was “inactive: 28.4, 34, 52.9, 53.8, 50.1, 35.5, 50.9, 64.6, 67.5, 51.7, 54.9, 62.1 (2×), 68.2, 73.2 (2×), 74, 64.4, 38.7, 73.3 (2×), 78.3, 70.9, 52.5, 71.4, 71.3% and active: -2.54%”.
